Laboratory results taken from patent publication US9828589B2, “Acyltransferases and uses thereof in fatty acid production” (priority 2009, dated 2017).

System: yeast mutant lacking the capability to synthesis TAG
Assay: DGAT activity assay (formation of triacylglycerole)
Details: TLC, FIG. 4

B1: DGAT_13152-mod(Pi): acyltransferase from Phythophtora infestance, 516 amino acids, SEQ-ID 36, encoded by SEQ-ID 35 (protein)
chain: MDVENSLLTRLAANGPTMSDAPMLLMAVVLVLALSGVVSTVSQQRQKPSEDETLQGRKLTRKLSSMGLSTLVTETPTNLSIPVSVLTVEGHLAKEDYVERLRARILHDAFFLRWRSVVRGDYKTGVYKYVEVPGYDVAQNVVEHTVEEGETTMSYVESALVNTPLDFDKPLWEMHVIHDPKGNPGNTSVGWKVHHCLGDGASLATAMAKLSDQSELFDAMVEKRLQAKKSPKTPKPRKPVTQIIKDILVFLYVCIWSVYVISYHMFALVTRREPATVFKRPGGKQKRLSYNMIYSVNATKAVGKHFRATVNDVMLNVVAGAMRKTMLSVGESVAPTLKVRCAIPVDMRSSTEVIRHTSNRFSSLVIDLPIGVEDSAQRLLQVTAAMNDAKNSLEKFFVYWSTHLVSMLPAPLMRLIVHFTTSRISVATSNVRASVVEVSLCKSPVSGFYGFVPPPPYVNLGVAILSMGDDLGLNVLVDPCVGVNAKQFLEFAKEEFTALQESVAAMEANAGDKKTK
modifications: Phythophtora infestance
DGAT activity (formation of triacylglycerole, TAG): having DGAT activity | DGAT activity (formation of triacylglycerole, TAG) (listed as DGAT2_13152 (Pi)): have DGAt activity
